Reference: PubChem BioAssay AID1508642 (National Center for Advancing Translational Sciences (NCATS), 2021)
Screen size: about 43,000 compounds; about 200 (0.47%) were called active. Not shown: some 12% with an inconclusive outcome. The call rests on the fitted dose curve; in most records, active means well fitted cell-killing curve with a large enough effect; inconclusive means small, poorly fitted or top-dose-only effect, or effect the other way; inactive means flat fitted curve, though single readings scatter. The list shows a part of the results.

Assay: Cell viability qHTS assay in S16 Pmp22-F2sN cells; further: nearly all actives have a fitted effect of over 65% in size
Conditions: S16 Pmp22-F2sN Schwann cells viability, CellTiter-Glo, 24 h; series mostly up to 57.5 µM; activity change, negative = cytotoxicity: at the top concentration
Method in brief: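 S16 Pmp22-F2sN Schwann cells (500-1,000/well) in phenol-red-free DMEM with 10% FBS received 23 nL compound by pin tool for 24 h at 37 °C. Viability was then read as CellTiter-Glo luminescence after 15 min at room temperature.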
On the % scale 0 is the no-effect control and ±100 the full control effect.

| SMILES | activity change, negative = cytotoxicity |
| --- | --- |
| COc1ccc(CCNC(=O)C2CCN(S(=O)(=O)c3c(C)noc3/C=C/c3ccc(C)cc3)CC2)cc1OC | inactive: 5.44% |
| COc1ccccc1NC(=O)CSC1=Nc2ccccc2C2=NC(CC(=O)NCc3ccccc3)C(=O)N12 (stereo unspecified) | inactive: 4.39% |
| CCOc1ccc(NC(=O)C2CCCN(c3nnc(C)c4c(C)n(-c5ccccc5)nc34)C2)cc1 (stereo unspecified) | inactive: -0.177% |
| Cn1c(=O)c2c(nc(N3CCOCC3)n2Cc2ccc(Br)cc2)n(C)c1=O | inactive: 1.48% |
| Cc1ccc(S(=O)(=O)N2CCc3cc(C(=O)Nc4c(F)cccc4F)ccc32)cc1 | inactive: 0.747% |
| CCC(C(=O)N1CCN(c2cc(C)ccc2C)CC1)n1nc(C)n2c(cc3occc32)c1=O (stereo unspecified) | inactive: -17.7% |
| CCOC(=O)Cn1c(=O)n(C2CCCCC2)c2nc(-c3ccc(C(C)C)cc3)nc(C(N)=O)c21 | inactive: 23.8% |
| Cc1ccc2c(CN3CCN(C(=O)c4ccc(Br)cc4)CC3)cc(=O)oc2c1 | inactive: -22.2% |
| O=C(CSc1ccc(-c2ccccn2)nn1)Nc1ccc(F)cc1F | inactive: 11.6% |
| Cc1ccc(CN2CCN(C3CCNCC3)C(=O)C2=O)cc1 | inactive: 16.3% |
| Cc1ccc2nc(NC(=O)CSc3ncc(C(=O)Nc4ccc(F)cc4)c(=O)n3C)sc2c1 | inactive: 25.8% |
| CCc1ccc(NC(=O)Cn2c(=O)n(-c3ccc(OC)cc3)c(=O)c3ccc(C(=O)NCc4ccc(C)cc4)cc32)cc1 | inactive: -7.8% |
| Cc1ccc(CNC(=O)CCNS(=O)(=O)c2cccc3nsnc23)cc1 | inactive: -2.87% |
| CCn1cc(C(=O)N(C)c2ccc(C(C)C)cc2)c2cc(OC)c(OC)cc2c1=O | inactive: -18.4% |
| CCc1ccc(-n2nc(C)c3c(C)cc(=O)n(CC(=O)Nc4ccc(F)cc4C)c32)cc1 | inactive: 23.7% |
| COCCn1cc(C(=O)NCCCOC(C)C)c2c3ccccc3n(C)c2c1=O | inactive: 13.6% |
| COc1ccc(CNC(=O)Cc2ccc(NC(=O)N3CCSc4ncccc43)cc2)cc1 | inactive: -4.63% |
| Cc1ccc(Cc2nc3ccccc3nc2SCC(=O)N2CCN(c3ccc(F)cc3)CC2)cc1 | inactive: 1.89% |
| CCOC(=O)c1noc2nc(C)n(Cc3cccc([N+](=O)[O-])c3)c(=O)c12 | inactive: -18.5% |
| CCc1ccc2oc(C(=O)Nc3cc(C)ccc3C)cc(=O)c2c1 | inactive: -0.189% |
| O=C(Nc1cc2c(cc1C(=O)c1ccccc1Cl)OCCO2)c1ccccc1 | inactive: -0.0035% |

| SMILES | activity change, negative = cytotoxicity |
| --- | --- |
| CC(C)c1nn2c(=O)cc(COC(=O)c3ccccc3NC(=O)C3CCCCC3)nc2s1 | inactive: 27% |
| CC(=O)c1ccc(Nc2cc(C)nc3nc(Cc4ccc(Cl)cc4)nn23)cc1 | inactive: -1.49% |
| CC1Cc2ccccc2N1C(=O)CSc1nnc(-c2ccccc2Cl)o1 (stereo unspecified) | inactive: 13.6% |
| CN(C)c1ccc(CNC(=O)c2ccccc2NC(=O)c2nsc3ccccc23)cc1 | inactive: 17.4% |
| Cc1ccc(NC(=O)Cn2ccn(-c3ccccc3)c(=O)c2=O)cc1 | inactive: 4.87% |
| CCN(C(=O)CSc1nc2ccccc2[nH]1)c1ccccc1 | inactive: 5.25% |
| Cc1ccc(Cn2cc(S(=O)(=O)c3cccc(Cl)c3)c(=O)c3cc(F)c(N4CCOCC4)cc32)cc1 | inactive: -2.49% |
| CCOc1ccc(C2NC(=O)c3c(COC)cc(C)nc3N2Cc2ccccc2)cc1OC (stereo unspecified) | inactive: 5.91% |
| CCCOc1ccc(CNC(=O)c2ccc(-n3c(C)cc4c3CCC(C)C4)cc2)cc1 (stereo unspecified) | inactive: 13.9% |
| Cc1cc2oc(C(=O)Nc3ccc(S(=O)(=O)Nc4ncccn4)cc3)cc(=O)c2cc1C | inactive: 6.72% |
| COc1ccccc1-c1noc(CCC(=O)Nc2ccc(C)cc2C)n1 | inactive: 0.0357% |
| Cc1ccc(NC(=O)C2CCCN(S(=O)(=O)c3cn(C(C)C)cn3)C2)c(C)c1 (stereo unspecified) | inactive: -4.67% |
| Cc1ccc(C)c(N2CCN(C(=O)c3ccc4c(c3)N(Cc3ccc(F)cc3)C(=O)c3ccccc3S4=O)CC2)c1 (stereo unspecified) | inactive: 28.2% |
| COc1cc(OC)c(NC(=O)CCc2c(C)nc3cc(-c4ccccc4OC)nn3c2C)cc1Cl | inactive: 17% |
| CC(C)OC(=O)c1c(NC(=O)C2c3ccccc3Oc3ccccc32)sc2c1CCCC2 | inactive: 2.64% |
| Cc1cccc(N2CCN(S(=O)(=O)c3ccc4[nH]c5c(c4c3)CCCCC5)CC2)c1C | inactive: 16.1% |
| Cc1cccc(C(=O)NCC(=O)OCc2cc(=O)n3nc(C4CCCCC4)sc3n2)c1 | inactive: -3.3% |
| COc1cccc(OCCSc2nc(C)c(Cc3ccccc3)c(=O)[nH]2)c1 | inactive: -2.62% |
| COc1ccc(NC(=O)CCCN2C(=O)CCn3nc(-c4cn(C)c5ccccc45)cc32)cc1OC | inactive: 0.364% |
| CCC(=O)N1c2ccc(S(=O)(=O)NCc3ccc(F)cc3)cc2CC1C (stereo unspecified) | inactive: -3.79% |
| COc1cc2c(cc1OC)C(COc1ccc3c(C)cc(=O)oc3c1)N(C(=O)c1cc(Cl)ccc1OC)CC2 (stereo unspecified) | inactive: 8.34% |

| SMILES | activity change, negative = cytotoxicity |
| --- | --- |
| CCN(CC)C(=O)Cn1nnc2sc(-c3ccccc3)cc2c1=O | inactive: 0.392% |
| Cc1ccc(CN2CCSc3ccc(C(=O)NCC(C)c4ccccc4)cc32)cc1 (stereo unspecified) | inactive: -25.7% |
| COc1ccccc1C(=O)Nc1cc2c(cc1N1CCCC1)n(C)c(=O)c(=O)n2C | inactive: 5.38% |
| CCc1ccc(NC(=O)CSc2nc3ccccc3c(=O)n2CCNC(C)=O)cc1 | inactive: 0.728% |
| Cc1ccc(NC(=O)C(C)n2nnc3sc4c(c3c2=O)CCCC4)cc1Cl (stereo unspecified) | inactive: -5.35% |
| Cc1c(Cl)cccc1NC(=O)c1ncoc1-c1ccco1 | inactive: -11.3% |
| Cc1nc(-c2ccccc2)sc1CCNC(=O)C(=O)Nc1ccc2c(c1)OCO2 | inactive: 12.3% |
| CCOC(=O)c1c(C)[nH]c(CCC(=O)NCc2ccccc2Cl)c1C | inactive: 14.7% |
| Cc1c(Cl)cccc1NC(=O)c1ccc2snnc2c1 | inactive: 8.11% |
| COc1ccccc1NC(=O)CCN1CCCCC1 | inactive: 2.33% |
| CCOc1ccc(OCC)c(NC(=O)C2CCN(c3nnc(-n4cccc4)s3)CC2)c1 | inactive: -8.27% |
| Cc1ccn2c(=O)c(C(=O)NCCCN3CCCCC3C)c(O)nc2c1 (stereo unspecified) | inactive: 3.29% |
| Cc1ccc(NC(=O)CCSc2nc(-c3ccco3)cc(C(F)(F)F)n2)cc1F | inactive: 0.215% |
| C=CCc1cccc2cc(C(=O)Nc3ccc(F)cc3)c(=O)oc12 | inactive: 0.424% |
| COc1ccc2oc(=O)c(C(=O)Nc3ccc(C(=O)O)cc3)cc2c1 | inactive: 14.5% |
| FC(F)(F)Oc1ccc2c(c1)NC(c1ccncc1)=NC(c1cccs1)=N2 | inactive: -10.4% |
| C=Cc1ccc(Cn2c(C)c(CNCCc3ccccc3C)c(C(=O)O)c2C)cc1 | inactive: -3.76% |
| O=C(COc1ccc(Cl)cc1)Nc1ccc(C(=O)OCc2cc(=O)n3ccsc3n2)cc1 | inactive: 2.84% |
| COc1ccc(OCC(=O)Nc2nnc3n2CCS3)cc1 | inactive: 1.12% |
